In assay [1] the target is T1, FOLR1-Fc (human FOLR1 residues 25-234 fused with the Fc-fragment of human IgG1 followed by a His-tag at the … (human, UniProt P15328 25-234)).
T1 construct: range 25-234; Made in Expi293F cells; also called FOLR1-Fc-His; folate receptor alpha; not shown: Fc-fragment of human IgG1; C-terminal His-tag
As to the kind of experiment: ELISA on immobilized FOLR1-Fc; Kd after 24 h in mouse serum against 0 h. How it is done:
(§1) High binding plates (Greiner, 781061) were immobilized with 0.1-2.5 μg/ml FOLR1-Fc over night at 4° C. Dilution series of 197556a (SEQ ID NO: 1 with C-terminal sequence […]), 202521 (SEQ ID NO: 30 with C-terminal coupling sequence “SAC”; see SEQ ID NO: 44) and 202521-Dota-Lu (SEQ ID NO: 30 with C-terminal coupling sequence “SAC” and Dota labeled with Lutetium Lu³⁺) were incubated in 100% mouse serum overnight at 37° C. ELISA-plates were washed with 1×PBS and blocked with 3% BSA/0.5% Tween/PBS 2 h at RT. Dilution series after 0 h or 24 h incubation in the presence of serum were incubated on ELISA-plates 1 h at rt. After washing with PBST, wells were incubated with biotinylated anti-ubiquitin-antibody (1:1000) 1 h at rt. The binding was visualized with Streptavidin-HRP (1:10.000).
A general note: In an ELISA, binding on a coated surface is turned into a signal by an enzyme label.

For assay [2], the target named is T1, FOLR1-Fc (human FOLR1 residues 25-234 …). Put plainly: ELISA on immobilized FOLR1-Fc, after 24 h in 100% mouse serum at 37 C. How it is done: as §1
Assay [3] shares this target. Put plainly: ELISA on immobilized FOLR1-Fc, 0 h in 100% mouse serum. How it is done:
as §1

The target of assay [4] is T2, FOLR1 on transfected HEK293-FOLR1-cells (human, UniProt P15328 25-234).
T2 construct: whole, on cells; also called surface-exposed FOLR1; folate receptor alpha
Put plainly: flow cytometry on HEK293-FOLR1-cells, 0 h in 100% mouse serum. How it is done: (§2) Flow cytometry was used to analyze the specific interaction of FOLR1 binding proteins with surface-exposed FOLR1 but not with FOLR2. Transfected HEK293-FOLR1-cells, HEK293-FOLR2-cells, and empty vector control HEK293-pEntry-cells were trypsinized and resuspended in medium containing FCS, washed and stained in pre-cooled FACS blocking buffer. A cell concentration of 1×10⁶ cells/ml was prepared for cell staining and 100 μl/well were filled into a 96 well plate (Greiner) in triplicate for each cell line. 50 nM of Affilin proteins or monoclonal anti-human-FOLR1 antibody (clone LK 26; BioLegend, 908301) as positive control or anti-human-FOLR2 antibody (clone EM35; Sysmex, BD029864) were added to FOLR overexpressing and control cells. After 45 min the supernatants were removed, and 100 μl/well rabbit anti-Strep-Tag antibody (GenScript; A00626), 1:300 diluted in FACS blocking buffer, were added. Anti-FOLR1 antibody and anti-FOLR2 antibodies were detected with anti-mouse-IgG-Alexa 488 (Invitrogen; A-10680) with a dilution of 1:1000. After removal of the primary antibody, goat anti-rabbit IgG Alexa Fluor 488 antibody (Invitrogen; A11008) was applied in a 1:1000 dilution. Flow cytometry measurement was conducted on the Guava easyCyte 5HT device (Merck-Millipore) at excitation wavelength 488 nm and emission wavelength 520 nm.
(§3) The stability of FOLR1 binding proteins in the presence of serum was analyzed. […] 100 μl Affilin-serum solution was used to analyze the serum stability on HEK293-FOLR1-cells by FACS as described above (example 6). FACS analysis confirmed the binding of Affilin proteins to FOLR1 even after 24 h incubation in mouse serum (see Table 5). Further FOLR1 proteins were tested (results not shown) and binding to FOLR1 was confirmed even in the presence of serum.
A general note: In flow cytometry, cells or beads pass a laser one at a time.

For assay [5], the target named is T1, FOLR1-Fc (human FOLR1 residues 25-234 …). Put plainly: ELISA on immobilized FOLR1-Fc, 0 h in 100% mouse serum; 0 h in mouse serum. The procedure:
as §1

The target of assay [6] is T2, FOLR1 on transfected HEK293-FOLR1-cells. As to the kind of experiment: flow cytometry on HEK293-FOLR1-cells, after 24 h in 100% mouse serum at 37 C. How it is done:
as §2, §3

Assay [7] addresses T1, FOLR1-Fc (human FOLR1 residues 25-234 …). Put plainly: SPR (Biacore 3000), FOLR1-Fc immobilized on CM5 chip, Langmuir 1:1. From the text: (§4) A CM5 sensor chip (GE Healthcare) was equilibrated with SPR running buffer. Surface-exposed carboxylic groups were activated by passing a mixture of EDC and NHS to yield reactive ester groups. 700-1500 RU FOLR1 (on-ligand) were immobilized on a flow cell. A flow cell without ligand was used as reference. Injection of ethanolamine after ligand immobilization was used to block unreacted NHS groups. Upon ligand binding, protein analyte was accumulated on the surface increasing the refractive index. This change in the refractive index was measured in real time and plotted as response or resonance units (RU) versus time. The analytes were applied to the chip in serial dilutions with a flow rate of 30 μl/min. The association was performed for 30 seconds and the dissociation for 60 seconds. After each run, the chip surface was regenerated with 30 μl regeneration buffer and equilibrated with running buffer. The control samples were applied to the matrix with a flow rate of 30 μl/min, while they associate for 60 seconds and dissociate for 120 seconds. Regeneration and re-equilibration were performed as previously mentioned. Binding studies were carried out by the use of the Biacore 3000 (GE Healthcare); data evaluation was operated via the BIAevaluation 3.0 software, provided by the manufacturer, by the use of the Langmuir 1:1 model (RI=0).
(In SPR one partner is held on a chip, and binding of the other changes the refractive index at the surface.)

Assay [8] has as its target T2, FOLR1 on transfected HEK293-FOLR1-cells. As to the kind of experiment: flow cytometry on HEK293-FOLR1-cells; EC50 after 24 h in mouse serum against 0 h. The procedure: as §2, §3
Assay [9] deals with FOLR2 (folate receptor beta) as used in the SPR assay (UniProt P14207 17-230, limits assumed). Put plainly: SPR (Biacore), Affilin-199490 on FOLR2 (FOLR-beta) compared with FOLR1 (FOLR-alpha).
Assay [10] has as its target T1, FOLR1-Fc (human FOLR1 residues 25-234 …). Put plainly: SPR (Biacore), FOLR1 immobilized on CM-5 chip, 1:1 Langmuir fit. The procedure: FIG. 2. […] Analysis via label-free interaction assays using SPR (Biacore). FOLR1 was immobilized on a CM-5 chip. The lines show different concentrations: 0, 0.1, 0.3, 0.93, 2.77, 8.3, 25, and 75 nM.
as §4, with “Binding studies were carried out by the use of the Biacore 3000 (GE Healthcare); data evaluation was operated via the BIAevaluation 3.0 software, provided by the manufacturer, by the use of the Langmuir 1:1 model (RI=0).” left out

In general, Kd refers to the constant that tells how readily two partners part at equilibrium. Read a low Kd as higher affinity. Broadly, the EC50 is the midpoint of the concentration-response curve. Read a high EC50 as weaker potency.

T2 sequence (P15328 25-234): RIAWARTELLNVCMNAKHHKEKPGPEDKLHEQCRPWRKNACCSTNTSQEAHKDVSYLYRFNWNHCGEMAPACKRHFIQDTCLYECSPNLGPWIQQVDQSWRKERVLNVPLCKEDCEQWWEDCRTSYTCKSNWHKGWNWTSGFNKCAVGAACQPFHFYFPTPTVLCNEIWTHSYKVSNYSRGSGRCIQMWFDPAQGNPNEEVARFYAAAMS
UniProt P14207, sequence (P14207 17-230 limits assumed): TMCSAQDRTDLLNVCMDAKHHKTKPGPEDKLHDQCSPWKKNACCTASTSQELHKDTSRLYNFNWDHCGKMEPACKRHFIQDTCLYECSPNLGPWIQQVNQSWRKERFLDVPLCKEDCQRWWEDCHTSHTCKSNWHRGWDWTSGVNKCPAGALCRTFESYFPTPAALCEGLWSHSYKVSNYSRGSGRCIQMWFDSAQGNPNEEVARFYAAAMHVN

B1: Affilin 202521 (designed binder)
chain: MQIFVKTLEEKYIALEVEPSDTIENVKAKVQDKEGIPPDQQELLWYGEQLEDGRTLSDYNILGGAVLKLQLRLRAAGGSGGGSGGGSGGGSGMQIFVKTLEEKYIALEVEPSDTIENVKAKVQDKEGIPPDQQELLWYGEQLEDGRTLSDYNILGGAVLKLQLRLRAASAC
B1: the “Decrease (fold)” value in assay [1] is 1.5 fold. Besides, the dissociation constant Kd in assay [2] was 0.11 nM; in [3], 0.074 nM.

B2: Affilin 202521-Dota-Lu (designed binder)
chain: MQIFVKTLEEKYIALEVEPSDTIENVKAKVQDKEGIPPDQQELLWYGEQLEDGRTLSDYNILGGAVLKLQLRLRAAGGSGGGSGGGSGGGSGMQIFVKTLEEKYIALEVEPSDTIENVKAKVQDKEGIPPDQQELLWYGEQLEDGRTLSDYNILGGAVLKLQLRLRAASAC
modifications: Dota on the C-terminal coupling sequence "SAC" (cysteine), labeled with Lutetium Lu3+
As to B2, the “Decrease (fold)” value in assay [1] was found to be 0.9 fold. Also, the equilibrium dissociation constant (Kd) is 0.046 nM in [2] and 0.05 nM in assay [3].

B3: Affilin-197556a (designed binder)
chain: MQIFVKTLEEKYIALEVEPCDTIENVKAKVQDKEGIPPDQQELLWYGEQLEDGRTLSDYNILGGAVLKLQLRLRAASAWSHPQFEK
notes: Ubiquitin mutein; The flow cytometry assays detect with an anti-Strep-Tag antibody
For B3, the EC50 in [4] and in [6] was 0.4 nM throughout. Also, the “Decrease (fold)” value in assay [1] came to 1.2 fold; in [8], 1 fold. Further, the results for the Kd in assay [2], in assay [5] and in [7] were 0.041 nM, 0.035 nM and 0.411 nM, respectively.

B4: Affilin-199490 (designed binder)
chain: MQIFVKTLEEKYIALEVEPSDTIENVKAKVQDKEGIPPDQQELLWYGEQLEDGRTLSDYNILGGAVLKLQLRLRAAGGSGGGSGGGSGGGSGMQIFVKTLEEKYIALEVEPSDTIENVKAKVQDKEGIPPDQQELLWYGEQLEDGRTLSDYNILGGAVLKLQLRLRAA
notes: also called homodimer of Affilin-197556b
Regarding B4, the EC50 amounted to 0.43 nM in [4] and 0.47 nM in [6]. In addition, the binding result in assay [9] was “no binding”. In addition, the Kd is less than 0.5 nM in assay [10] and 0.119 nM in assay [7]. For the same molecule, in assay [8], the “Decrease (fold)” value was determined as 1.1 fold.

The record behind these values is US20260078155A1 (NAVIGO PROTEINS, published 2026).
